How the values were obtained:
[1] = target: Serine/threonine-protein kinase SIK1 (Homo sapiens) (UniProt P57059); experiment: Inhibition of human recombinant SIK at 1 uM using CREBtide as substrate measured after 90 mins in presence of ATP by LANCE assay relative to control
Procedure, shortened: (§1)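 Kinase panel run by an outside provider (Eurofins Cerep) in a LANCE assay, single test concentration of 1 µM, results as percent inhibition.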

[2] = target: Serine/threonine-protein kinase MARK1 (Homo sapiens) (UniProt Q9P0L2); experiment: Inhibition of human recombinant MARK1 at 1 uM using Ulight-RRRSLLE as substrate measured after 30 mins in presence of ATP by LANCE assay relative to control; procedure, shortened: as §1
[3] = target: Tyrosine-protein kinase Lck (Homo sapiens) (UniProt P06239); experiment: Inhibition of human recombinant LCK at 1 uM using Ulight-Poly GAT[EAY(1:1:1)]n as substrate measured after 10 mins in presence of ATP by LANCE assay relative to control; procedure, shortened: as §1
[4] = target: Mitogen-activated protein kinase kinase kinase kinase 4 (Homo sapiens) (UniProt O95819); experiment: Inhibition of human recombinant HGK at 1 uM using Ulight-FLGFTYVAP as substrate measured after 90 mins in presence of ATP by LANCE assay relative to control; procedure, shortened: as §1
[5] = target: T1, Serine/threonine-protein kinase TAO2 (Homo sapiens) (UniProt Q9UL54); experiment: Inhibition of human recombinant TAO2 at 1 uM using Ulight-FLGFTYVAP as substrate measured after 60 mins in presence of ATP by LANCE assay relative to control; procedure, shortened: as §1
T1 sequence (whole entry): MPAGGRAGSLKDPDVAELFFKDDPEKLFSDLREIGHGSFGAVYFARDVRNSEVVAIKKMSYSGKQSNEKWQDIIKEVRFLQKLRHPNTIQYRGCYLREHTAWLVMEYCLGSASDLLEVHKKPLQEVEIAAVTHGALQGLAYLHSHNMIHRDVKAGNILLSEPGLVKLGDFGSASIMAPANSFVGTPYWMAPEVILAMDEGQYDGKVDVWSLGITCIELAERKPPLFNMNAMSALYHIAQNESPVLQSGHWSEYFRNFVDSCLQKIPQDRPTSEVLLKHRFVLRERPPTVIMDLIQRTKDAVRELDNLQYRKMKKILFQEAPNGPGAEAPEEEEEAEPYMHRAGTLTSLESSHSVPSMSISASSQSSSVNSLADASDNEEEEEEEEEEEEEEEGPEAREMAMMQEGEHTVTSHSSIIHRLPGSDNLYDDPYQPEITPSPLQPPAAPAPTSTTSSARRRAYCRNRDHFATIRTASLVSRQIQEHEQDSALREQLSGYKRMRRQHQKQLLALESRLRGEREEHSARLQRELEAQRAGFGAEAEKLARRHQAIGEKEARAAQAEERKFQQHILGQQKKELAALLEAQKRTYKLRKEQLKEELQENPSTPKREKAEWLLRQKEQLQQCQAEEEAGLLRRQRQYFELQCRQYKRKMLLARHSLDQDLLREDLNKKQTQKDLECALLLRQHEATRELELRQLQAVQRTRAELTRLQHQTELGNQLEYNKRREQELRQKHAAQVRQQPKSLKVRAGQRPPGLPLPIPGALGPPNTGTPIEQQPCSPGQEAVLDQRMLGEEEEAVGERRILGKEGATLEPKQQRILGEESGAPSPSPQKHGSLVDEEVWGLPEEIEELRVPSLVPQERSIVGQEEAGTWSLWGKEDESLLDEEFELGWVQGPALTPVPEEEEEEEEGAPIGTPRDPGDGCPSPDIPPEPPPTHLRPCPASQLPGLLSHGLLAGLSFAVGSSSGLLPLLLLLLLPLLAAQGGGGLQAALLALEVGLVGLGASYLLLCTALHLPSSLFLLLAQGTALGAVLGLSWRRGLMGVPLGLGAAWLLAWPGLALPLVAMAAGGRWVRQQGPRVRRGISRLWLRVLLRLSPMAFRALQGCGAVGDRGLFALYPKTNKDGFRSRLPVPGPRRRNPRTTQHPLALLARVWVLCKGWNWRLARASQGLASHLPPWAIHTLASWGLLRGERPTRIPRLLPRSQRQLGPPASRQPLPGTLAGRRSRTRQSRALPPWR

[6] = target: T2, Serine/threonine-protein kinase Chk1 (Homo sapiens) (UniProt O14757); experiment: Inhibition of human recombinant CHK1 at 1 uM using CREBtide as substrate incubated for 30 mins in presence of ATP by LANCE assay relative to control; procedure, shortened: as §1
T2 sequence (whole entry): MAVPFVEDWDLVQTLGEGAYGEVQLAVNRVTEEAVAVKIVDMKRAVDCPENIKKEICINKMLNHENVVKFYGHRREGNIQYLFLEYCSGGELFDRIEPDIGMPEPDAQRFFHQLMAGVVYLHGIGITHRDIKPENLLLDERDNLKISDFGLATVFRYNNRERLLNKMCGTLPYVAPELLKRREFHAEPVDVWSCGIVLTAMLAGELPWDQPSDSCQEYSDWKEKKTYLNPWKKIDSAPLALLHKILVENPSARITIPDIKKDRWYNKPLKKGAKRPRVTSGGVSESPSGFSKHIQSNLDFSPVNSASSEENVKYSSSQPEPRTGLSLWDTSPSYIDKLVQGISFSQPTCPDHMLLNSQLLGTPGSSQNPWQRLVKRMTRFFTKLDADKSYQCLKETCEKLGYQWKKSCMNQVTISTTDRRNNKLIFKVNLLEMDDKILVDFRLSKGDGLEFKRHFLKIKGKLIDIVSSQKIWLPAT

Blood = experiment: Inhibition of LPS-induced TNFalpha production in human whole blood preincubated with compound for 15 mins followed by LPS addition measured after 2.5 hrs by ELISA; format: functional, tissue-based
CYP3A4 = CYP3A4 (Homo sapiens, UniProt P08684); experiment: Inhibition of human recombinant CYP3A4 expressed in baculovirus infected insect cells using BOMR as substrate at 10 uM in presence of NADPH by fluorimetric analysis relative to control; format: ADME; conditions: probe BOMR
[7] = target: Epidermal growth factor receptor (Homo sapiens) (UniProt P00533); experiment: Inhibition of human recombinant EGFR at 1 uM using Ulight-CAGAGAIETDKEYYTVKD as substrate measured after 15 mins in presence of ATP by LANCE assay relative to control; procedure, shortened: as §1
[8] = target: Cyclin-dependent kinase 2 (Homo sapiens) (UniProt P24941); experiment: Inhibition of human recombinant CDK2 at 1 uM using Ulight-CFFKNIVTPRTPPPSQGK-amide as substrate incubated for 30 mins in presence of ATP by LANCE assay relative to control; procedure, shortened: as §1
[9] = target: T3, Serine/threonine-protein kinase Sgk1 (Homo sapiens) (UniProt O00141); experiment: Inhibition of human recombinant SGK1 at 1 uM using Ulight-RRRSLLE as substrate measured after 30 mins in presence of ATP by LANCE assay relative to control; procedure, shortened: as §1
T3 sequence (whole entry): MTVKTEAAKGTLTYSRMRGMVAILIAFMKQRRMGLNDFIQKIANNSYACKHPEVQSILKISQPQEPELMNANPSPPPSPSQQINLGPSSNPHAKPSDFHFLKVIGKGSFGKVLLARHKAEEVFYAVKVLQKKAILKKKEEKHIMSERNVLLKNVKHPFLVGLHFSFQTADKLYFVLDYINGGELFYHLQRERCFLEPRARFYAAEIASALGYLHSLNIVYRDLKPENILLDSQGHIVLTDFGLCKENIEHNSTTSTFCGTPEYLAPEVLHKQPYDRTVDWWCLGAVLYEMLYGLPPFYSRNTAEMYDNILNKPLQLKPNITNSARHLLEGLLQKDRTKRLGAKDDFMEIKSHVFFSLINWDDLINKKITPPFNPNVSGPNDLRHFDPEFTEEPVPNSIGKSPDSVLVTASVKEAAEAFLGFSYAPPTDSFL

[10] = Metabolic stability in human liver microsomes assessed as parent compound remaining after 30 mins by LC-MS analysis relative to control; format: ADME, Microsome; conditions: read-out: Stability
CYP2D6 = CYP2D6 (Homo sapiens, UniProt P10635); experiment: Inhibition of human recombinant CYP2D6 expressed in baculovirus infected insect cells using EOMCC as substrate at 10 uM in presence of NADPH by fluorimetric analysis relative to control; format: ADME; conditions: probe EOMCC
[11] = target: cAMP-dependent protein kinase catalytic subunit alpha (Homo sapiens) (UniProt P17612); experiment: Inhibition of human recombinant PKA at 1 uM using Ulight-RRRSLLE as substrate measured after 10 mins in presence of ATP by LANCE assay relative to control; procedure, shortened: as §1
[12] = Metabolic stability in human liver microsomes assessed as parent compound remaining after 10 mins by LC-MS analysis relative to control; format: ADME, Microsome; conditions: read-out: Stability
[13] = Plasma concentration in RjOrl:Swiss CD-1 mouse at 10 mg/kg, iv administered as single dose measured after 2 hrs by LC-MS analysis; conditions: in vivo
[14] = Metabolic stability in human liver microsomes assessed as parent compound remaining after 180 mins by LC-MS analysis relative to control; format: ADME, Microsome; conditions: read-out: Stability
[15] = target: T4, 3-phosphoinositide-dependent protein kinase 1 (Homo sapiens) (UniProt O15530); experiment: Inhibition of human recombinant PDK1 at 1 uM using Ulight-FLGFTYVAP as substrate measured after 90 mins in presence of ATP by LANCE assay relative to control; procedure, shortened: as §1
T4 sequence (whole entry): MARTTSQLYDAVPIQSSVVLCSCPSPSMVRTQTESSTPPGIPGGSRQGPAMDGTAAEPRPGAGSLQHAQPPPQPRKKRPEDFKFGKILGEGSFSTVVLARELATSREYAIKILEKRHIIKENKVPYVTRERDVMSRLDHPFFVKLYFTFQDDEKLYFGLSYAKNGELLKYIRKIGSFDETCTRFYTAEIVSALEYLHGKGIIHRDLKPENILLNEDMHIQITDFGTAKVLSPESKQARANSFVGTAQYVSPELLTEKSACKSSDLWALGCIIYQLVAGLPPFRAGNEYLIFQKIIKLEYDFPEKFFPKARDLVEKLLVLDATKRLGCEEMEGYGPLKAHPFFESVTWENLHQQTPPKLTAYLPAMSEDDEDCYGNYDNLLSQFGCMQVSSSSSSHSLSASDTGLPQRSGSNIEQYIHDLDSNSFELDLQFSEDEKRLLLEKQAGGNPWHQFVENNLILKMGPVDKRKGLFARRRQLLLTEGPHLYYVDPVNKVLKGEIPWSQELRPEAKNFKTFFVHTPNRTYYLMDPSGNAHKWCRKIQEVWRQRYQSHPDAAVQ

[16] = target: Ephrin type-A receptor 2 (Homo sapiens) (UniProt P29317); experiment: Inhibition of human recombinant EPHA2 at 1 uM using Ulight-TK peptide as substrate measured after 30 mins in presence of ATP by LANCE assay relative to control; procedure, shortened: as §1
Chain of UniProt P29317 (P29317 whole entry): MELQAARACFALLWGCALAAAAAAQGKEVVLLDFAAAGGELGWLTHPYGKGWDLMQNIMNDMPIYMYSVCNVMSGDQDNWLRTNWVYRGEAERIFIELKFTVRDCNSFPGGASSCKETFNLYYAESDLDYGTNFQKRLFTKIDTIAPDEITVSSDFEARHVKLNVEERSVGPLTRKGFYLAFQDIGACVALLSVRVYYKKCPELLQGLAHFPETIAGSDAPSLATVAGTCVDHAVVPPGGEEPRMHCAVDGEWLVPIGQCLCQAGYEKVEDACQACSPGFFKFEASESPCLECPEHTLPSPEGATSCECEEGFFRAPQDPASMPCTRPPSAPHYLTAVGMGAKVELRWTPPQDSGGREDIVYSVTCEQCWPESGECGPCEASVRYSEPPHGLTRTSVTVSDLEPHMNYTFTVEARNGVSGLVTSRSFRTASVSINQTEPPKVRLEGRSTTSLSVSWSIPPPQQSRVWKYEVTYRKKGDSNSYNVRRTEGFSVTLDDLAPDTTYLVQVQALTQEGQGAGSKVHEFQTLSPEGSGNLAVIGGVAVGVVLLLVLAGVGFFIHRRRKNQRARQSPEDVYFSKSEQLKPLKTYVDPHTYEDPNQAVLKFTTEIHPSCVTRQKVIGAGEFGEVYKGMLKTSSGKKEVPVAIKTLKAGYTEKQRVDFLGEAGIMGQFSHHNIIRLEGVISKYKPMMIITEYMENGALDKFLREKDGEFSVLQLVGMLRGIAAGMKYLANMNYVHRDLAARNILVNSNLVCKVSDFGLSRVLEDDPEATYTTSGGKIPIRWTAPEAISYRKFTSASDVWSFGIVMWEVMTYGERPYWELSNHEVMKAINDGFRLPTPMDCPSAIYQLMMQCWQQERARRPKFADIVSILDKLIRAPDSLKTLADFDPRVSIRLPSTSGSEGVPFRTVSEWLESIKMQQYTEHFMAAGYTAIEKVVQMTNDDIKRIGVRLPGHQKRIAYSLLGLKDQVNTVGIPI

Chain of UniProt P00533 (P00533 whole entry): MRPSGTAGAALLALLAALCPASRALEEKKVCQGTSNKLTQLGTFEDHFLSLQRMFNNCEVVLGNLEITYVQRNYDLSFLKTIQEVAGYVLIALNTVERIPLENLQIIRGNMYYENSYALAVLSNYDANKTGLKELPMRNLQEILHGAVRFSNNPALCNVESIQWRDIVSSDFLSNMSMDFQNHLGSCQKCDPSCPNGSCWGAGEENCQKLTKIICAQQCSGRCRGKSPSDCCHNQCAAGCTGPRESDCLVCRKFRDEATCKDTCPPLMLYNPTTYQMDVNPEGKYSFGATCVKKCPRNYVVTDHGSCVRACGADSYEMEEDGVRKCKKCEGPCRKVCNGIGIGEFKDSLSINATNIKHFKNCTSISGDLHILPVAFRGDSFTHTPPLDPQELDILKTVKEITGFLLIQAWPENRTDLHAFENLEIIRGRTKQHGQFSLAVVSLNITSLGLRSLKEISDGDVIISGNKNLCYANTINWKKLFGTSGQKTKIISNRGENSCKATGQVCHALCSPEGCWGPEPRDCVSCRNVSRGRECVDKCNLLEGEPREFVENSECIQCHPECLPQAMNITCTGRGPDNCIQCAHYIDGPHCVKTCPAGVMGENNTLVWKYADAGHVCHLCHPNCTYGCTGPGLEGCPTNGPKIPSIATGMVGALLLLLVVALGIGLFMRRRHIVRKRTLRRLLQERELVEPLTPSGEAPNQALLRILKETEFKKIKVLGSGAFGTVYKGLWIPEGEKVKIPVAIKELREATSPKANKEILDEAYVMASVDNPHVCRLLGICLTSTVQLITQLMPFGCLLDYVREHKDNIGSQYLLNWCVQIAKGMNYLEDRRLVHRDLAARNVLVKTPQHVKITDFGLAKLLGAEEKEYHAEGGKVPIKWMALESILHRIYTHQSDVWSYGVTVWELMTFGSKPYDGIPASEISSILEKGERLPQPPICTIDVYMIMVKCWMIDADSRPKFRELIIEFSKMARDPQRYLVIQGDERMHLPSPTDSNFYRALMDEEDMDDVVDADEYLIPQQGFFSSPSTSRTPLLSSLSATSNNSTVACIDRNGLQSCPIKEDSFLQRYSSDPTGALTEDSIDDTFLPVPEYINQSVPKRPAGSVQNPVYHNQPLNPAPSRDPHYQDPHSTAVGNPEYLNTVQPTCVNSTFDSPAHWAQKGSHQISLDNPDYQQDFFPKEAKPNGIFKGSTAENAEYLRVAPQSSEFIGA
Chain of UniProt Q9P0L2 (Q9P0L2 whole entry, looked up): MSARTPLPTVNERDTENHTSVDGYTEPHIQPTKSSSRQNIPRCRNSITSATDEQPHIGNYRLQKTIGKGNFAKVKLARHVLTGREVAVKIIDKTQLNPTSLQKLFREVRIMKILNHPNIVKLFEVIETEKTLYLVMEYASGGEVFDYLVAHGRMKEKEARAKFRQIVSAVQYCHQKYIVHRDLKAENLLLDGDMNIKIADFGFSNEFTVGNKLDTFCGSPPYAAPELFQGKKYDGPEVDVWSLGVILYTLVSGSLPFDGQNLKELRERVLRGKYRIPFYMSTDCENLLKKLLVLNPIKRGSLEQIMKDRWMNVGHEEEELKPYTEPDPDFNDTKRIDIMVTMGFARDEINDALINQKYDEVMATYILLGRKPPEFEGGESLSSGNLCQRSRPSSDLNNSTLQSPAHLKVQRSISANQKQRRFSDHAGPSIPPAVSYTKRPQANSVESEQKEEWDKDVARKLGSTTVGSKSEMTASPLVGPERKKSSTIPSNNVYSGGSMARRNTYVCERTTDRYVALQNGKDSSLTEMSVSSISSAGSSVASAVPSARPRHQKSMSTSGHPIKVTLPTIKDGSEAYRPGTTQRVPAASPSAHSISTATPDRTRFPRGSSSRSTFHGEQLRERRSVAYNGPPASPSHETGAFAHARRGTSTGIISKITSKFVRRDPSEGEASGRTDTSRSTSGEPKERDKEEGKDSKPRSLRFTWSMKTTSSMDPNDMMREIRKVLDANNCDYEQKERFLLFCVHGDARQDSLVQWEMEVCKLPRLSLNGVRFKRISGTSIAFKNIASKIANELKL
Chain of UniProt P08684 (P08684 whole entry): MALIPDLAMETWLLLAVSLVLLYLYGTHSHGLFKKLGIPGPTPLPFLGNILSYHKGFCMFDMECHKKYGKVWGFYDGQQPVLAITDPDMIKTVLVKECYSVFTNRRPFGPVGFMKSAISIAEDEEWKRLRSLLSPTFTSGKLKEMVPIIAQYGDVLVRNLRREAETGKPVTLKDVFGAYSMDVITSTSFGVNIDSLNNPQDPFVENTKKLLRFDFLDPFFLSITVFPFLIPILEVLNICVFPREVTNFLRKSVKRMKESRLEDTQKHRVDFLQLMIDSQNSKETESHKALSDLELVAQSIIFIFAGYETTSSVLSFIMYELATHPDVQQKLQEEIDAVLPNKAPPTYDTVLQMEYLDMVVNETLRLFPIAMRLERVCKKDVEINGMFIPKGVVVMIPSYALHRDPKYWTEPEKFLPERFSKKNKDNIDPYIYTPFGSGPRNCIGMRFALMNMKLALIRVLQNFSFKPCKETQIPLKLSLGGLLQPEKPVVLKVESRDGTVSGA
Chain of UniProt P06239 (P06239 whole entry, looked up): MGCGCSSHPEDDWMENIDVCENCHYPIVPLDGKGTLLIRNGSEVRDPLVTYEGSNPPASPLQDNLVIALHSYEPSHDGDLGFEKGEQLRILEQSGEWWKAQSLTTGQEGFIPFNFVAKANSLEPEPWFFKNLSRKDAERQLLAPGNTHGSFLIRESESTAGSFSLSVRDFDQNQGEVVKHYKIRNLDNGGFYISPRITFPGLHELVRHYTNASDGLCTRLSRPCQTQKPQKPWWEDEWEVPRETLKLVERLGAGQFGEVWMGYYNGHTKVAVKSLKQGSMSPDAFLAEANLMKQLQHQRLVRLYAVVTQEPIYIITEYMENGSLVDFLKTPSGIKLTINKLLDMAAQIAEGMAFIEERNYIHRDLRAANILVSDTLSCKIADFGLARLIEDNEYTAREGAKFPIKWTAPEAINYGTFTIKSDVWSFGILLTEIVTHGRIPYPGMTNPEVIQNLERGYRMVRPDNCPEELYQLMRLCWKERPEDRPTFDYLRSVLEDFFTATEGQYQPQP
Chain of UniProt P57059 (P57059 whole entry): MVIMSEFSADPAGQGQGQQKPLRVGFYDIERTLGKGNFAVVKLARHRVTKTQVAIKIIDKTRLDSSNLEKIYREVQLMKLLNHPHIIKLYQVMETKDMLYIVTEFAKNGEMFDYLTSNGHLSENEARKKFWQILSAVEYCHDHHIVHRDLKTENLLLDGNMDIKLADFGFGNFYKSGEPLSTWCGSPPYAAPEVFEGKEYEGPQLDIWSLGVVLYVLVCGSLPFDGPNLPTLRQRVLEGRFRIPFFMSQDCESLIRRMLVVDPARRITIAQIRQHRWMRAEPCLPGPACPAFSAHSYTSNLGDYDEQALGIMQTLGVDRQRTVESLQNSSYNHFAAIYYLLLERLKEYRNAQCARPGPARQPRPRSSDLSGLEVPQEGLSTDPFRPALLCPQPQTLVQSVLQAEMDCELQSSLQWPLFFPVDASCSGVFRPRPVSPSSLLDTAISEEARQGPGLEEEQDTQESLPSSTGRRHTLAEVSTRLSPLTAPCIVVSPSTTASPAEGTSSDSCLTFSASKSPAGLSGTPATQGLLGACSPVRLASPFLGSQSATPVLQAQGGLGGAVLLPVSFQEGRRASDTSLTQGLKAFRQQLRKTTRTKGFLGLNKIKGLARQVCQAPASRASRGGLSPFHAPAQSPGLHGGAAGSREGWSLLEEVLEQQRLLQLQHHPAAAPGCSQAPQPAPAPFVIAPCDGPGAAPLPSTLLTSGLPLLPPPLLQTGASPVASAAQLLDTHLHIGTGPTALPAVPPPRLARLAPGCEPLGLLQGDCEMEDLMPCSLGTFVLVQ

CCc1nc(-c2ccc(F)cc2)c(-c2ccnc(NC(=O)C3CC3)c2)[nH]1
inhibition [1]: 8.06% | inhibition [2]: -5.3% | inhibition [3]: 56.4% | inhibition [4]: 97.9% | inhibition [5]: 54.4% | inhibition [6]: 9.05% | IC50 (Blood): 317 nM | inhibition at 10 µM (CYP3A4): 75.1% | inhibition [7]: 93.3% | inhibition [8]: 11.2% | inhibition [9]: 8.36% | remaining at 0.5 h [10]: 93.8% | inhibition at 10 µM (CYP2D6): 58.3% | inhibition [11]: -7.3% | remaining at 10 min [12]: 95.4% | Concentration [13]: 95 ng/mL | remaining at 3 h [14]: 98.7% | inhibition [15]: -5.07% | inhibition [16]: 95.5%
